Measured values published in PubChem BioAssay (Tox21).
Several values for one entry are separate records, joined by “and”; a condition that tells them apart may be missing. Equal entries are not always repeated. This list was built around the results that the source calls inconclusive (neither active nor inactive); the mix of calls is not that of the screen. For some of these results: Where the call is inconclusive, the potency comes from a doubtful curve fit. Activity calls are given as the source filed them. Unless noted, calls come from the whole dose curve; as a rule, active = well fitted curve in the direction sought with a large enough effect in the repeat runs; inconclusive = weak or mixed curves; inactive = no such curve, though single readings can be large; an effect the other way counts as inactive or inconclusive.

Columns and labels:
[1] = qHTS assay for small molecule agonists of the antioxidant response element (ARE) signaling pathway (AID 743202; active = well fitted activation curve with a large enough effect in the signal ratio in the repeat runs, not every such curve was filed as active; inconclusive = weak or mixed curves, or effect the other way; inactive = no such curve, though single readings can be large or run the other way; the % refers to the signal ratio; note: potency is the fitted concentration of half-maximal effect; for activation: % is set by controls: 0 for no effect and ±100 for the full control effect); details: HepG2 ARE-bla reporter, beta-lactamase FRET, 16 h; activation: at 73.3 µM (top of the series) unless noted
Method in brief: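 HepG2 ARE-bla reporter line, 2,000 cells/well; 5 h preincubation 37 C/5% CO2; compound (DMSO) 16 h 37 C; B/G FRET substrate 2 h RT; fluorescence intensity.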

[2] = qHTS assay for small molecule activators of the heat shock response signaling pathway - cell viability counter screen (AID 743209); details: HSE-bla HeLa viability, CellTiter-Glo luminescence, 5 h; activity change, negative = cytotoxicity: at 62.6 µM (top of the series); note: nearly all actives have a fitted effect of over 50% in size; note: potency is the fitted concentration of half-maximal effect; for activity change, negative = cytotoxicity: % is set by controls: 0 for no effect and ±100 for the full control effect
Method in brief: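 Cytotoxicity counter screen run in the same wells as the heat-shock bla reporter assay: HeLa HSE-bla cells, 5 h compound exposure at 37 C, viability read by CellTiter-Glo luminescence.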

[3] = qHTS assay to identify small molecule agonists of the peroxisome proliferator-activated receptor delta (PPARd) signaling pathway - cell viability counter screen (AID 743211); details: PPARd-bla HEK293H viability, CellTiter-Glo luminescence, 17 h; activity change, negative = cytotoxicity: at 62.6 µM (top of the series); note: nearly all actives have a fitted effect of over 55% in size; note: potency is the fitted concentration of half-maximal effect
Method in brief: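 Following 5 h plating at 37 C and 5% CO2, PPARd UAS-bla HEK293H cells took up test compounds for 17 h. Viability was quantified by luminescence 30 min after CellTiter-Glo addition at room temperature.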

[4] = biological target: Peroxisome proliferator-activated receptor delta (Homo sapiens) (UniProt Q03181); assay: qHTS assay to identify small molecule agonists of the peroxisome proliferator-activated receptor delta (PPARd) signaling pathway (AID 743212; calls by dose curve; note: potency is the fitted concentration of half-maximal effect); details: HEK293H PPARd-UAS-bla, beta-lactamase FRET ratio, 17 h; activation: at 62.6 µM (top of the series) unless noted
Method in brief: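 Read-out: beta-lactamase FRET fluorescence after 2 h room-temperature incubation with LiveBLAzer B/G substrate. Cells were HEK293H carrying a UAS-bla reporter for PPARd, treated at 37 C with DMSO-dissolved compounds.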

[5] = biological target: Peroxisome proliferator-activated receptor delta (Homo sapiens) (UniProt Q03181); assay: qHTS assay to identify small molecule antagonists of the peroxisome proliferator-activated receptor delta (PPARd) signaling pathway (AID 743215; active = well fitted inhibition curve with a large enough effect in the signal ratio in the repeat runs, not every such curve was filed as active; inconclusive = weak or mixed curves, or effect the other way; inactive = no such curve, though single readings can be large or run the other way; the % refers to the signal ratio;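 note: cells stimulated with agonist L165041 at 300 nM final during compound exposure; % is set by controls: 0 for no effect and ±100 for the full control effect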); details: HEK293H PPARd-UAS-bla, beta-lactamase FRET ratio, antagonist, 17 h; ratio activity, negative = inhibition: at 62 µM (top of the series) unless noted
Method in brief: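 Agonist L165041 (300 nM final) added with compound to PPARd-bla HEK293H UAS-bla reporter cells; 17 h incubation at 37 C. Read-out: LiveBLAzer FRET substrate, 2 h at room temperature, fluorescence intensity.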

[6] = biological target: Bile acid receptor (Homo sapiens) (UniProt Q96RI1); assay: qHTS assay to identify small molecule antagonists of the farnesoid-X-receptor (FXR) signaling pathway (AID 743217; active = well fitted inhibition curve with a large enough effect in the signal ratio in the repeat runs, not every such curve was filed as active; inconclusive = weak or mixed curves, or effect the other way; inactive = no such curve, though single readings can be large or run the other way; the % refers to the signal ratio; note: potency is the fitted concentration of half-maximal effect); details: HEK293T FXR-UAS-bla, beta-lactamase ratio, CDCA-stimulated, 16 h; activity change, negative = inhibition: at 62.6 µM (top of the series) unless noted
Method in brief: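 Antagonist mode: chenodeoxycholic acid at 50 uM final stimulates a UAS-driven beta-lactamase reporter in HEK 293T FXR-bla cells during 16 h, 37C compound exposure. Read-out is FRET substrate fluorescence after 2 h at room temperature.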

[7] = biological target: Vitamin D3 receptor (Homo sapiens) (UniProt P11473); assay: qHTS assay to identify small molecule antagonists of the vitamin D receptor (VDR) signaling pathway (AID 743223; active = well fitted inhibition curve with a large enough effect in the signal ratio in the repeat runs, not every such curve was filed as active; inconclusive = weak or mixed curves, or effect the other way; inactive = no such curve, though single readings can be large or run the other way; the % refers to the signal ratio; note: potency is the fitted concentration of half-maximal effect); details: VDR-UAS-bla HEK293T, beta-lactamase FRET ratio, 16 h; activity change, negative = inhibition: at 61 µM (top of the series) unless noted
Method in brief: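 Beta-lactamase activity in VDR-bla cells is measured by FRET substrate fluorescence (2 h, room temperature) after cells spend 16 h at 37C with test compound and 3 nM final 1alpha,25-dihydroxyvitamin D3.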

[8] = qHTS assay to identify small molecule agonists of the vitamin D receptor (VDR) signaling pathway - cell viability counter screen (AID 743224); details: VDR-bla HEK293T viability, CellTiter-Glo luminescence, 16 h; activity change, negative = cytotoxicity: at 62.6 µM (top of the series); note: nearly all actives have a fitted effect of over 50% in size; note: potency is the fitted concentration of half-maximal effect
Method in brief: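 Counter screen run in the same wells as the VDR-bla reporter assay: CellTiter-Glo luminescence, 30 min at room temperature, after 16 h compound treatment at 37C of cells pre-plated for 4 h.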

[9] = qHTS assay to identify small molecule agonists of the AP-1 signaling pathway (AID 1159526; calls by dose curve; note: potency is the fitted concentration of half-maximal effect); details: ME-180 (cervical carcinoma) AP-1-bla reporter, beta-lactamase FRET ratio, 5 h; activation: at 76.8 µM (top of the series) unless noted
[10] = qHTS assay for small molecule activators of the heat shock response signaling pathway (AID 743210; active = well fitted activation curve with a large enough effect in the signal ratio in the repeat runs, with a control signal flat, not every such curve was filed as active; inconclusive = weak or mixed curves; the % refers to the signal ratio; note: potency is the fitted concentration of half-maximal effect); details: HeLa HSE-bla reporter, beta-lactamase ratio, 5 h; activation: at 62.6 µM (top of the series) unless noted
Method in brief: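 Beta-lactamase reporter read-out: FRET substrate fluorescence after 2.5 h at RT, following 5 h compound treatment at 37 C of HeLa cells carrying HSE-driven bla reporter; quantitative HTS format.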

[11] = qHTS assay to identify small molecule antagonists of the peroxisome proliferator-activated receptor delta (PPARd) signaling pathway - cell viability counter screen (AID 743213); details: PPARd-bla HEK293H viability, CellTiter-Glo luminescence, 17 h; viability change, negative = cytotoxic: at 62 µM (top of the series) unless noted; note: nearly all actives have a fitted effect of over 50% in size; note: potency is the fitted concentration of half-maximal effect
Method in brief: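 CellTiter-Glo was added to PPARd-bla HEK293H wells following 17 h compound treatment in the presence of 300 nM L165041. Luminescence was recorded after 30 min at room temperature.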

[12] = qHTS assay to identify small molecule antagonists of the vitamin D receptor (VDR) signaling pathway - cell viability counter screen (AID 743225); details: VDR-bla HEK293T viability, CellTiter-Glo luminescence, 16 h; viability change, negative = cytotoxic: at 61 µM (top of the series) unless noted; note: % is set by controls: 0 for no effect and ±100 for the full control effect; nearly all actives have a fitted effect of over 50% in size
Method in brief: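 In this counter screen, VDR-bla HEK 293T cells receive test compound plus 3 nM final calcitriol for 16 h at 37C. Room-temperature steps of 2 h with the beta-lactamase substrate, then 30 min with CellTiter-Glo, precede the luminescence read.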

[13] = biological target: Bile acid receptor (Homo sapiens) (UniProt Q96RI1); assay: qHTS assay to identify small molecule agonists of the farnesoid-X-receptor (FXR) signaling pathway (AID 743220; active = well fitted activation curve with a large enough effect in the signal ratio in the repeat runs, not every such curve was filed as active; inconclusive = weak or mixed curves, or effect the other way; the % refers to the signal ratio; note: % is set by controls: 0 for no effect and ±100 for the full control effect); details: HEK293T FXR-UAS-bla, beta-lactamase FRET ratio, 16 h; activation: at 62.6 µM (top of the series)
Method in brief: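 FXR-UAS-bla HEK 293T cells carrying a UAS-driven beta-lactamase reporter were plated for 5 h at 37C/5% CO2, then exposed to DMSO-dissolved Tox21 10K compounds for 16 h at 37C. A LiveBLAzer B/G FRET substrate was loaded for 2 h at room temperature before fluorescence reading.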

[14] = qHTS assay to identify small molecule agonists of the farnesoid-X-receptor (FXR) signaling pathway - cell viability counter screen (AID 743218); details: FXR-bla HEK293T viability, CellTiter-Glo luminescence, 16 h; viability change, negative = cytotoxic: at 62.6 µM (top of the series) unless noted; note: % is set by controls: 0 for no effect and ±100 for the full control effect; nearly all actives have a fitted effect of over 45% in size
Method in brief: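 Viability counter screen in the same wells: CellTiter-Glo luminescence, 30 min room-temperature incubation, measured after the beta-lactamase read. Cells were GeneBLAzer FXR-UAS-bla HEK 293T, compound-treated 16 h at 37C.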

[15] = biological target: Vitamin D3 receptor (Homo sapiens) (UniProt P11473); assay: qHTS assay to identify small molecule agonists of the vitamin D receptor (VDR) signaling pathway (AID 743222; calls by dose curve; note: potency is the fitted concentration of half-maximal effect); details: HEK293T VDR-UAS-bla, beta-lactamase FRET ratio, 16 h; activation: at 63.5 µM (top of the series) unless noted
Method in brief: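 Agonist mode, beta-lactamase reporter: fluorescence from LiveBLAzer B/G FRET substrate (2 h, room temperature) read after 16 h compound treatment at 37 C of VDR-bla cells, which were pre-incubated 4 h after seeding.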
Tags give direction and shape of the fitted curve or compound fluorescence and quenching.

UniProt P11473, sequence (P11473 whole entry, looked up): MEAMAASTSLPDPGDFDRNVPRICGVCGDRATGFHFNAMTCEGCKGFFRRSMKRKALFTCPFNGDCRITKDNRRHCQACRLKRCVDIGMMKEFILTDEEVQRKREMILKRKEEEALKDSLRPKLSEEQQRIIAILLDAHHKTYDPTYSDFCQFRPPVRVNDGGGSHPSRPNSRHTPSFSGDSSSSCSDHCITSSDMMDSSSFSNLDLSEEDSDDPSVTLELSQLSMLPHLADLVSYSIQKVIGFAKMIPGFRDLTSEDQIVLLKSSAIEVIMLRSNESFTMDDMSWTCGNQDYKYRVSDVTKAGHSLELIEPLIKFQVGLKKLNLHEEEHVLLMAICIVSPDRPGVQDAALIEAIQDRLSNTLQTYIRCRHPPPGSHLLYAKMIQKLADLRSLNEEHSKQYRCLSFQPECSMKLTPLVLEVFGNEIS
UniProt Q96RI1, sequence (Q96RI1 whole entry, looked up): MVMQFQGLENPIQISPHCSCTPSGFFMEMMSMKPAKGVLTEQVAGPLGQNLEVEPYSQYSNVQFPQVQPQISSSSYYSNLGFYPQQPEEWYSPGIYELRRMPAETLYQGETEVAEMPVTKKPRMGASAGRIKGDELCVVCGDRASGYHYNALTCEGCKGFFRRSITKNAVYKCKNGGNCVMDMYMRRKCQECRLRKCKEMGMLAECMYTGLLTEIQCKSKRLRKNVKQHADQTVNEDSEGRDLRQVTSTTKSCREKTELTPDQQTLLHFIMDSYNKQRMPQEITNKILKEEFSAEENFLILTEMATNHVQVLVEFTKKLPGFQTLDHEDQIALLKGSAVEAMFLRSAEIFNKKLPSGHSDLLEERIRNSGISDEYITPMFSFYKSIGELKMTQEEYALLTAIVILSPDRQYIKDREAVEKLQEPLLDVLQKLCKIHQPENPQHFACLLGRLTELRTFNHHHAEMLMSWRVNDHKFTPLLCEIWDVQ
UniProt Q03181, sequence (Q03181 whole entry, looked up): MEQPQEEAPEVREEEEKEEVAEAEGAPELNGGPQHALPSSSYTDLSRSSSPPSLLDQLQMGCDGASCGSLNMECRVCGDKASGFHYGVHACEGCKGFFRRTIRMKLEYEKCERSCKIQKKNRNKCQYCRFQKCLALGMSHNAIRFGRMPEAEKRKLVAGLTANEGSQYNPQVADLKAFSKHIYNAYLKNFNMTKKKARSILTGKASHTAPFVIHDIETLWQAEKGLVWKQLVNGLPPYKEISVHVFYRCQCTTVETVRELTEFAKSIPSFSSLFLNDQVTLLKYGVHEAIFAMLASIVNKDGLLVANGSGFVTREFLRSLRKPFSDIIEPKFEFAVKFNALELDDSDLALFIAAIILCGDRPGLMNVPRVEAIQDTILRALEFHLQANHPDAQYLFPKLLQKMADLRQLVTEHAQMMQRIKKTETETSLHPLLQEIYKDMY

Cc1ccccc1C(=O)Nc1ccc(C(=O)N2CCCC(O)c3cc(Cl)ccc32)c(C)c1 (centres undefined)
Potency [1]: inactive | Potency [2]: inactive | Potency [3]: inconclusive: 0.944 µM [cytotoxic, full curve] | Potency [4]: inconclusive: 33.5 µM [rising, partial curve, poor fit] | ratio activity, negative = inhibition [5]: inconclusive: 14.5% | activity change, negative = inhibition [6]: inconclusive: -23% | Potency [7]: inconclusive: 3.79 µM [activator, partial curve, poor fit] | activity change, negative = cytotoxicity [8]: inconclusive: 19.3% | Potency [9]: inconclusive: 0.0169 µM [rising, full curve, poor fit]

C1=C\CC/C=C\CC/1
Potency [1]: inactive | Potency [10]: inactive | Potency [11]: inactive | Potency [5]: inactive | Potency [8]: inactive | Potency [12]: inactive | Potency [9]: inactive

C=C(C)C(=O)OC1CC(C)CC(C)(C)C1 (centres undefined)
Potency [1]: inconclusive: 0.969 µM [rising, single point] | Potency [2]: inactive | activation [10]: inconclusive: 5.43% | viability change, negative = cytotoxic [11]: inconclusive: 33.6% | Potency [8]: inactive | Potency [9]: inactive

CC(C)=CCC/C(C)=C/CC/C(C)=C/CO
activation [1]: inconclusive: 26.2% | Potency [2]: inconclusive: 61.6 µM [cytotoxic] | Potency [10]: inconclusive: 61.6 µM | Potency [8]: active: 49 µM | Potency [9]: inconclusive: 54.9 µM

CCCCNC(=S)NCCCC
activation [1]: inconclusive: 14.8% | Potency [10]: active: 23.6 µM | Potency [3]: inconclusive: 38.9 µM [cytotoxic, partial curve, poor fit] | Potency [6]: inconclusive: 54.9 µM [rising, single point] | activation [13]: inconclusive: 4.14% | Potency [8]: inconclusive: 54.9 µM [cytotoxic, single point] | Potency [9]: inconclusive: 54.9 µM [activator, single point]

O=C(O)c1cc(O)c(O)c(O)c1
Potency [1]: inconclusive: 3.09 µM [rising, full curve] and inconclusive: 5.96 µM [rising, full curve] | Potency [10]: inconclusive: 42.4 µM [activator] | Potency [3]: inconclusive: 55.5 µM [cytotoxic, single point] | activation [4]: inconclusive: -8.6% [at 81.1 µM] | Potency [11]: inconclusive: 0.0175 µM [cytotoxic, full curve, poor fit] | ratio activity, negative = inhibition [5]: inconclusive: -59% [at 80.4 µM] | Potency [8]: inconclusive: 55.5 µM [cytotoxic, single point] | Potency [9]: inconclusive: 62.2 µM

CC(Cc1ccccc1)(NC(=O)CN)c1ccccc1 (centres undefined)
activation [1]: inconclusive: -18.5% | Potency [10]: inactive | Potency [11]: inconclusive: 33.5 µM [cytotoxic, single point] | Potency [5]: inactive | Potency [6]: inconclusive: 18.8 µM [activator, partial curve, poor fit] | Potency [9]: inconclusive: 9.52 µM [activator, full curve, poor fit]

CC(COc1ccccc1)NC(C)C(O)c1ccc(O)cc1 (centres undefined)
Potency [1]: inactive | Potency [10]: inconclusive: 29.8 µM [activator, single point] | Potency [11]: inconclusive: 0.266 µM [cytotoxic, full curve, poor fit] | activity change, negative = inhibition [6]: inconclusive: 20.5% | Potency [14]: inactive | Potency [13]: inactive | activity change, negative = inhibition [7]: inconclusive: 8.84% | Potency [8]: inconclusive: 13.3 µM [cytotoxic, partial curve, poor fit] | Potency [12]: inactive | Potency [9]: inconclusive: 21.3 µM [activator, partial curve]

CC1=C2[C@H](/C=C(\C)C(=O)O)CC[C@@H](C)[C@H]2CC1
Potency [1]: inconclusive: 63.4 µM | Potency [2]: inactive | Potency [10]: inconclusive: 61.5 µM | Potency [4]: inconclusive: 20.2 µM [rising, partial curve] | ratio activity, negative = inhibition [5]: inconclusive: -20.1% [at 80.4 µM] | Potency [15]: inconclusive: 57 µM [single point] | Potency [7]: inconclusive: 45.3 µM [activator, partial curve] | Potency [9]: inconclusive: 14.3 µM [falling, full curve]

Oc1ccc(O)c2c(O)cccc12
Potency [1]: inconclusive: 19.2 µM [falling, partial curve, poor fit] | Potency [10]: inconclusive: 18.2 µM | Potency [3]: inactive | Potency [11]: inconclusive: 4.85 µM [rising, partial curve, poor fit] | activity change, negative = inhibition [7]: inconclusive: 29.5% | Potency [9]: inconclusive: 19.3 µM [falling, partial curve, poor fit]

C=C[Si]1(C)O[Si](C)(C=C)O[Si](C)(C=C)O[Si](C)(C=C)O1 (centres undefined)
Potency [1]: inactive | Potency [2]: inconclusive: 61.6 µM [cytotoxic, single point] | Potency [10]: inconclusive: 59.3 µM [activator] | Potency [11]: inconclusive: 54.9 µM [cytotoxic] | ratio activity, negative = inhibition [5]: inconclusive: -92.2% | Potency [8]: inconclusive: 54.9 µM [cytotoxic, single point] | Potency [9]: inactive
